Test results as given in ChEMBL document CHEMBL1201862, “PubChem BioAssay data set” (2004).
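Assay format: 96-well plates, 48-hour exposure. GI50 is the concentration that inhibits growth by half.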 Active and inactive are the calls of the source. No stated cut-off is given here; in the data, active = GI50 up to about 1.1 µM and inactive = higher.

System: NCI-H322M
Test: DTP human tumour cell line panel, 48 h

Row | SMILES | GI50
1 | Nc1c(S(N)(=O)=O)cc(S(N)(=O)=O)cc1S(N)(=O)=O | inactive: > 100 µM
2 | O=C(/C=C/c1ccccc1)c1ccc(Cl)cc1Cl | inactive: 34.9 µM
3 | CCOc1ccc2c(ccc(/C=C/c3cc(C)c4cccnc4c3O)[n+]2C)c1 | inactive: 1.26 µM
4 | Oc1nnc(-c2ccc(F)cc2)cc1-c1ccccc1 | inactive: > 100 µM
5 | CCN(CC)c1ccc(/C=C/c2ccnc3ccccc23)cc1 | inactive: > 100 µM
6 | FC(F)(Sc1ccccn1)c1nc2ccccc2o1 | inactive: > 100 µM
7 | CC1=NN2C(=N)/C(=C/c3ccc(F)cc3)C(=O)N=C2S1 | inactive: > 100 µM
8 | O=C1CN(c2cccc(Cl)c2)C(=O)CN1CCN1CC(=O)N(c2cccc(Cl)c2)CC1=O | inactive: > 100 µM
9 | CC1=C(O)C(=O)C2C(=O)C1C1Cc3ccccc3C21 (centres undefined) | inactive: > 100 µM
10 | C(=N\N=C1NCCCN1)/c1ccc2ccccc2c1 | inactive: 15.7 µM
11 | CCC1CCC2CCCC(C)N12 (centres undefined) | inactive: > 100 µM
12 | C=C(C)C1CC2C(C)=C(OC(C)=O)C1n1c(=O)c3cc4ccccc4cc3c(=O)n12 (centres undefined) | inactive: > 65.5 µM
13 | CC[C@@]12C=CC(=S)N(CCSc3ccccc3)[C@@H]1c1c(n(S(=O)(=O)c3ccc(OC)cc3)c3ccccc13)CC2 | inactive: > 100 µM
14 | CC1CC(C)CC(NC2=NCCO2)C1 (centres undefined) | inactive: > 100 µM
15 | CC(C)=Cc1cc(C(=O)Nc2ccc(Cl)c(Cl)c2)nc(N)n1 | inactive: > 100 µM
16 | C/C(=N\NC(N)=S)c1ccc2c(c1)OCO2 | inactive: > 100 µM
17 | CN1CCN(c2cc3c(cc2F)c(=O)c(C(=O)O)cn3C2CC2)CC1CC#N (centres undefined) | inactive: > 100 µM
18 | CC(C)NC(=O)CN1CCN(C2=CC(=O)c3c(O)ccc(O)c3C2=O)CC1 | inactive: 17.7 µM
19 | COC1OC2COC(c3ccccc3)OC2C(O)C1OC(=S)c1ccccc1 (centres undefined) | inactive: 40.7 µM
20 | O=C(CC1S/C(=N\c2ccccc2Cl)NC1=O)Nc1ccc(Cl)cc1 (centres undefined) | inactive: > 100 µM
21 | CCSC1(SCC)CCN(/C=N/C(C)(C)C)C1 | inactive: > 100 µM
22 | COc1ccc(NC(=S)NN=C(C)c2cccc(C(C)=NNC(=S)Nc3ccc(OC)cc3)n2)cc1 | inactive: 5.12 µM
23 | N#[N+][c-]1c(-c2ccccc2)n[nH]c1=O | inactive: > 100 µM
24 | CC(SC(=S)N1CCOCC1)C(=O)Nc1nnc(-c2ccccc2)o1 (centres undefined) | inactive: > 100 µM

Row | SMILES | GI50
25 | O=C(N[C@@H](c1ccccc1)[C@@H](O)C(=O)OCc1ccc2c(c1)OCO2)c1ccccc1 | inactive: > 100 µM
26 | C=C(C)C12CC3CC/C(=N/O)C(C1)C3(N1CCOCC1)C/C2=N/O (centres undefined) | inactive: > 100 µM
27 | CC1(C)Oc2ccc(NC(=O)CCC(N)C(=O)O)cc2O1 (centres undefined) | inactive: > 100 µM
28 | O=[N+]([O-])c1ccc2[nH]ncc2c1Cl | inactive: 14.7 µM
29 | CC(=O)CNC(=O)OC(C)(C)C | inactive: > 100 µM
30 | CCC1(c2ccc(OC)c(OC)c2)CCN(S(=O)(=O)c2ccc(C)cc2)C1 (centres undefined) | inactive: > 100 µM
31 | COc1ccc2c(c1)C(=O)c1ccc(OC)cc1C2=S | inactive: > 100 µM
32 | COC(=O)C[C@@H]1C(C)(C)[C@@H]2O[C@@]34C[C@@H]2C(=O)[C@]1(C)[C@H]3CC[C@@]1(C)[C@H](c2ccoc2)OC(=O)C[C@]14O | inactive: > 100 µM
33 | Cc1ccc(F)c2c(=O)cc(-c3ccccc3)[nH]c12 | inactive: > 100 µM
34 | O=C(CO)C1CC2C=CC1C2 (centres undefined) | inactive: > 100 µM
35 | COc1ccc(/C(Cl)=C/c2ccc(Cl)c(Cl)c2)cc1 | inactive: 45.1 µM
36 | c1ccc(CC2(c3cc4ccccc4[nH]3)OCCO2)nc1 | inactive: > 100 µM
37 | CCC(=O)Nc1ccc(N2C(=O)C(Cl)C2c2ccc(SC)cc2)cc1 (centres undefined) | inactive: > 100 µM
38 | COc1cc(NS(C)(=O)=O)ccc1N1Cc2c[nH]c3ccc4nc(C)cc1c4c23 | inactive: 56.1 µM
39 | CC(=O)OC1CC2(O)C(CCC3(C)C(c4ccc(=O)oc4)CCC32O)C2(C)C1=CC(O)C1OC12 (centres undefined) | active: 0.0361 µM
40 | CN(C(=O)Cc1ccccc1)n1cnn(CC(=O)OC(C)(C)C)c1=S | inactive: > 10 µM
41 | CCOC(=O)Nc1ccc(C)c(NC(=O)OCC)c1 | inactive: > 100 µM
42 | c1ccc2c(c1)CCc1[nH]c3c(c1-2)-c1ccccc1CC3 | inactive: > 100 µM
43 | CCOC(=O)C12CCCC1(O)N(NC(=O)c1ccccc1)C(C)=C2C(=O)OC (centres undefined) | inactive: > 100 µM
44 | COC(=O)C1=C(C)NC2(C)OC(C)(O)C(C(C)=O)C12C(C)=O (centres undefined) | inactive: > 100 µM
45 | CC1=CP(=O)(OC(C)C)CC(C)=C1Cl (centres undefined) | inactive: > 100 µM
46 | CCOC(=O)C1=CN(Cc2ccccc2)C2ON=C(c3ccc(Cl)cc3)C2C1 (centres undefined) | inactive: > 58.2 µM
47 | COC(=O)C1=C(C)NC(C)=C([N+](=O)[O-])C1c1cccc(N=O)c1 (centres undefined) | inactive: 33.9 µM
48 | COc1ccc(S(=O)(=O)Nc2ccc(-c3csc(N4C(=O)/C(=C/c5cccs5)N=C4c4ccccc4)n3)cc2)cc1Cl | inactive: > 100 µM

Row | SMILES | GI50
49 | CCOC(OCC)c1ccc(/C=C/c2cc(OC)c(OC)c(OC)c2)cc1 | inactive: 41.7 µM
50 | COc1cc2c[n+](C)c3c4ccccc4ccc3c2cc1OC | inactive: 9.79 µM
51 | COc1ccccc1-c1c(C#N)c(N)[nH]c(=S)c1C#N | inactive: 92.3 µM
52 | Cc1cc2c(c3oc(C(O)(CO)C4CO4)cc(=O)c13)C(=O)c1c(O)cccc1C2=O (centres undefined) | active: 0.000843 µM
53 | C=CCNC1=C2C[C@@H](C)C[C@@H](OC)[C@H](OC(=O)CCN(C)C)[C@H](C)/C=C(\C)[C@@H](OC(N)=O)[C@H](OC)/C=C\C=C(/C)C(=O)NC(=CC1=O)C2=O | inactive: 3.05 µM
54 | CCOC(=O)C1(C(=O)OCC)C[C@H](C)[C@](C)(O)C1 | inactive: > 100 µM
55 | COC1OC(CO)C(O)C(OC(C)=O)C1NC(=O)N(CCCl)N=O (centres undefined) | inactive: > 100 µM
56 | N/N=C1\C(OC(=O)Nc2ccccc2)=Nc2ccccc21 | inactive: 27.2 µM
57 | N#CCN(CC#N)C1CC=CCC1N(CC#N)CC#N (centres undefined) | inactive: > 100 µM
58 | CC1=C(c2cc(C(=O)Nc3ccc(Cl)c(Cl)c3)nc(N)n2)Sc2ccccc2N1 | inactive: > 100 µM
59 | COc1cccc(C2c3cc4c(cc3OC3COC(=O)C32)OCO4)c1OC (centres undefined) | inactive: > 100 µM
60 | O=C(CCCN1CCC2(CC1)CC(=O)N(N1CCCCCC1)C2=O)c1ccc(F)cc1 | inactive: > 100 µM
61 | O=C(/C=C/c1cccc(Br)c1)N1CCN(CCOC(c2ccccc2)c2ccccc2)CC1 | inactive: > 100 µM
62 | O=C(N/N=C\c1cccc2ccccc12)Nc1ccc([N+](=O)[O-])cc1 | inactive: 14.1 µM
63 | COC1/C=C/OC2(C)Oc3c(C)c(O)c4c(c3C2=O)C(=O)C=C(NC(=O)/C(C)=C\C=C\C(C)C(OC=O)C(C)C(O)C(C)C(OC(C)=O)C1C)C4=O (centres undefined) | inactive: 20.6 µM
64 | CCNC(=S)Nc1c(C#N)c2n(c1C(=O)OCC)CCCCC2 | inactive: > 100 µM
65 | CC(=O)O[C@H]1CCC2[C@@H]3CCC4Cc5nc6c(nc5C[C@]4(C)C3CC[C@@]21C)CC1CC[C@@H]2C(CC[C@@]3(C)C2CC[C@@H]3C(C)CCCC(C)C)[C@@]1(C)C6 (some centres undefined) | inactive: > 100 µM
66 | CC(=O)c1ccc(Br)cc1NC1=CC(=O)c2ncccc2C1=O | active: 0.693 µM
67 | C[N+]1(C)CCCC1C(=O)[O-] (centres undefined) | inactive: > 100 µM
68 | Cc1ccc(S(=O)(=O)N2CCN(CCN(C)CCN3CCN(S(=O)(=O)c4ccc(C)cc4)CC3)CC2)cc1 | inactive: 15.3 µM
69 | COc1cc(C2SCC(=O)N2c2ccc(-c3ccc(-n4c(-c5ccccc5)nc5ccccc5c4=O)cc3)cc2)cc(OC)c1OC (centres undefined) | inactive: 35.6 µM
70 | O=[N+]([O-])/C(C(Cl)=C(Cl)Cl)=C1/OCCS1 | inactive: 59.7 µM
71 | CC(C)(C)OC(=O)NC1CCCC1C(=O)C1=CCCC1 (centres undefined) | inactive: > 100 µM
72 | S=C1Cc2c(-c3ccc(Cl)cc3)cc(-c3ccccc3)nc2-c2ccccc2N1 | inactive: 10.9 µM

Row | SMILES | GI50
73 | COC(=O)C12OC(C)(C(CC(=O)OC(C)(C)C)C1=O)C1C(=O)N(c3ccccc3)C(=O)C12 (centres undefined) | inactive: > 100 µM
74 | Cc1cn(C2CC(O)C(Cn3nncc3Cn3nc(Br)c(=O)[nH]c3=O)O2)c(=O)[nH]c1=O (centres undefined) | inactive: > 100 µM
75 | O=C(OCc1ccccc1)n1cccc1 | inactive: > 100 µM
76 | [N-]=[N+]=CC(=O)OCC1SCCCS1 | inactive: > 100 µM
77 | O=C1C=C(O)C(=O)c2c(O)ccc(O)c21 | inactive: > 100 µM
78 | COc1ccc(/N=N/c2ccc3oc(=O)c(C(=O)Nc4ccc(Cl)cc4)cc3c2)cc1 | inactive: 9.35 µM
79 | CN(C)CCn1c2c(c3ccccc31)CCc1ccccc1-2 | inactive: 20.4 µM
80 | NC(=O)Cn1c(=O)oc2cc(C(=O)CN3CCOCC3)ccc21 | inactive: > 100 µM
81 | O=C1NC(=O)/C(=C/c2ccc(S(=O)(=O)N/N=C\C(O)C(O)C(O)C(O)CO)cc2)N1 (centres undefined) | inactive: > 100 µM
82 | COc1c(C)c(C/C=C(\C)CCCCO[Si](c2ccccc2)(c2ccccc2)C(C)(C)C)c(OC)c(OC)c1OC | inactive: > 100 µM
83 | CC(C)Oc1c(-c2c(OC(C)C)c(=O)c2=O)c(=O)c1=O | inactive: > 79.6 µM
84 | Nc1nc(=O)c2c([nH]1)NCC(CCNc1ccc(C(=O)O)cc1)N2 (centres undefined) | inactive: > 100 µM
85 | N#C[BH2-][n+]1cn(C2CC(O)C(COP(=O)(O)OC3CC(n4ccc(N)nc4=O)OC3CO)O2)c2nc(N)[nH]c(=O)c21 (centres undefined) | inactive: > 100 µM
86 | C[C@@H]1C(O)CC[C@H](C)C12CC=CC2=O (some centres undefined) | inactive: 68.1 µM
87 | COC1=CC(=O)C2C(C1=O)C(c1ccccc1)[C@H]2C (some centres undefined) | inactive: > 100 µM
88 | NC(Cc1ccc(CP(=O)(O)O)cc1)C(=O)O (centres undefined) | inactive: > 100 µM
89 | Cc1c2cc[n+](C)c(C)c2cc2c1[nH]c1ccccc12 | inactive: 3.86 µM
90 | CN(C)CCNc1ccc([N+](=O)[O-])c2sc3ccccc3c(=O)c12 | inactive: 4.36 µM
91 | COc1cccc(-c2nc(O)c3ccccc3n2)c1OC | inactive: > 100 µM
92 | O=C1O/C(=C\c2ccc(O)c(Br)c2)C(c2ccc(O)cc2)=C1Cl | inactive: 39.1 µM
93 | COc1cc(-c2oc3c(OC)c(O)c(OC)c(O)c3c(=O)c2OC)cc(OC)c1OC | inactive: > 100 µM
94 | Cn1cnc([N+](=O)[O-])c1Sc1nc2cc(Cl)c(F)cc2[nH]1 | inactive: 17.6 µM
